Data published in PubChem BioAssay AID1478 (National Center for Advancing Translational Sciences (NCATS), 2009).
Where “and” joins values, the source holds several entries; their conditions need not be identical. Equal values may be shown once. Out of some 200,000 compounds screened, about 860 (0.43%) were called active. This list was built around the results that the source calls inconclusive (neither active nor inactive); the mix of calls is not that of the screen. Calls follow the shape of the dose curve; as a rule, active = well fitted inhibition curve with a large enough effect; inconclusive = small, poorly fitted or top-dose-only effect; inactive = flat fitted curve, though single readings scatter. Potencies of inconclusive entries are doubtful fits and often do not repeat. Some structures have more than one record in an assay (separate samples or runs), and their calls can disagree.

target: Cruzipain (Trypanosoma cruzi) (UniProt P25779); assay: qHTS Assay for Promiscuous and Specific Inhibitors of Cruzain (with detergent); settings: purified cruzain, Z-FR-AMC fluorescence, 0.01% Triton; also: nearly all actives have a fitted effect of over 40% in size;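 as to max response, negative = inhibition: plate controls were neutral wells for no effect and buffer without enzyme for full effect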
In short: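 Sodium acetate buffer (100 mM, pH 5.5) containing 5 mM DTT and 0.01% Triton X-100 hosted 1.5 nM cruzain and test compound for 15 min at room temperature. Cleavage of 2 uM Z-FR-AMC was then tracked by fluorescence.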
Potency is read from the fitted curve at half-maximal effect; tags tell the direction and shape of the fitted curve.

Chain of UniProt P25779 (P25779 whole entry, looked up): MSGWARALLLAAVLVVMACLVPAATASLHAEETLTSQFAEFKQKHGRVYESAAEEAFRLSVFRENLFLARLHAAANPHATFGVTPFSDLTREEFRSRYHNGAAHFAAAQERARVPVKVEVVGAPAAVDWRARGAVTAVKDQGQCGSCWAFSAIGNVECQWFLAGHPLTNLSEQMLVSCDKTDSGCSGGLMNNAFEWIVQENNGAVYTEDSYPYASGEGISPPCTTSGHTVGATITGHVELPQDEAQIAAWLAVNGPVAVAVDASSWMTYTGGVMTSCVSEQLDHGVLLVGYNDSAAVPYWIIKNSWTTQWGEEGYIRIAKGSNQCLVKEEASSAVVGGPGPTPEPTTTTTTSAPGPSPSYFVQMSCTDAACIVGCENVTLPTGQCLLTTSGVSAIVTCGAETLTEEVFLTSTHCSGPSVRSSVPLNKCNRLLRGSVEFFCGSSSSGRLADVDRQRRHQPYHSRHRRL

SMILES | Potency | max response, negative = inhibition
Cc1ccc(C(=O)NC(=S)/C=C2\N(C)c3ccccc3C2(C)C)cc1 | inconclusive: 14.1 µM [inhibitor, partial curve] | 
Cc1ccc(N/N=C2\COC(C)(C)CC2=O)cc1 | inconclusive: 28.2 µM [inhibitor, single point] | 
Nc1c(C(=O)NCc2ccco2)sc2nc3c(cc12)C(=O)CCC3 | inconclusive: 15.8 µM [inhibitor, partial curve] | 
O=C(O)c1ccc(S(=O)(=O)c2ccccc2)cc1 |  | inactive: 2.3%
Cc1cc(C(=O)NCC(=O)OCC(=O)Nc2ccc(OC(F)F)cc2)ccc1[N+](=O)[O-] | active: 11.2 µM | 
Oc1c(C(Nc2ccccn2)c2ccccc2F)ccc2cccnc12 (stereo not drawn) | inconclusive: 0.631 µM [inhibitor, full curve, poor fit] | 
O=C(NCC1CCCO1)c1ccc(COc2ccc(F)cc2)o1 (stereo not drawn) | inconclusive: 39.8 µM [inhibitor, single point] | 
COc1ccc(C(=O)Oc2cccc(/C=N/NC(N)=S)c2)cc1 | inconclusive: 14.1 µM [inhibitor, partial curve] | 
Cc1ccc2onc(CC(=O)N3CCN(c4cccc(Cl)c4)CC3)c2c1 | inconclusive: 25.1 µM [inhibitor, single point] | 
CCOC(=O)c1[nH]c(=O)[nH]c1CSc1nc(C)cc(C)n1 | inconclusive: 3.98 µM [inhibitor, single point] | 
CCOC(=O)c1c(NC(=O)c2ccc(OCC)c(Br)c2)sc2c1CCCC2 |  | inactive: -0.736%
COc1cccc(Cn2cc(C(=O)c3ccc(Cl)cc3)c(=O)c3ccccc32)c1 |  | inactive: -2.62%
Oc1ccc(N=C/C=C/c2ccc(Br)cc2)cc1-c1nc2ccccc2s1 |  | inactive: -14.1%
CSc1nc(NCCOCCO)c2sc3nc(-c4ccco4)c4c(c3c2n1)CCC4 | active: 7.94 µM | 
Cn1c(C(=O)NCCN2CCCCCC2)cc2c(=O)n(C)c3ccccc3c21 | active: 10 µM | 
O=C(COC(=O)CNS(=O)(=O)c1ccc2ccccc2c1)Nc1ccc2c(c1)OCO2 | inconclusive: 25.1 µM [inhibitor, single point] | 
Cc1cccc(OC(=O)NCCOC(=O)N(O)c2ccc(Cl)cc2)c1 | inconclusive: 31.6 µM [inhibitor, single point] | 
CCc1ccccc1NC(=O)Cn1nc2c3cc(F)ccc3n(Cc3cccc(C)c3)cc-2c1=O |  | inactive: -2.59%
CC1=NCCc2c1[nH]c1cc(O)ccc21 | active: 28.2 µM | 
CSCCC(NC(=O)C12CC3CC(CC(C3)C1)C2)C(=O)OCC(=O)c1ccc(C)cc1 (stereo not drawn) |  | inactive: -1.71%
CCn1c(C)c(C2N3CC4(C)CN2CC(CC)(C3)C4=O)c2ccccc21 (stereo not drawn) |  | inactive: -1.52%
COC(=O)c1ccccc1NC(=O)c1ccc(-c2ccccc2F)o1 | inconclusive: 25.1 µM [inhibitor, single point] | 
CCOC(=O)C1CCN(S(=O)(=O)c2cccc(-c3cn4cccnc4n3)c2)CC1 | inconclusive: 28.2 µM [inhibitor, single point] | 

SMILES | Potency | max response, negative = inhibition
Cc1ccc(-c2sc(C(=O)Nc3ccc(Br)cc3)cc2CC(=O)O)cc1 | inconclusive: 31.6 µM [inhibitor, single point] | 
COc1ccc(N=Cc2nc(-c3ccco3)oc2O)cc1 | inconclusive: 31.6 µM [inhibitor, single point] | 
O=C(O)c1ccc2cc(-c3ccc(O)c(C45CC6CC(CC(C6)C4)C5)c3)ccc2c1 | inconclusive: 31.6 µM [inhibitor, single point] | 
Cc1ccc(CN2COc3ccc4c(C)cc(=O)oc4c3C2)cc1 | inconclusive: 31.6 µM [inhibitor, single point] | 
Cc1cc(Nc2ccc(Br)cc2)n2nc(-c3ccccc3C)nc2n1 |  | inactive: -1.93%
COc1ccc(OC)c2[nH]c(=O)c(CCNC(=O)c3ccc(S(=O)(=O)N(C)C)cc3)cc12 | inconclusive: 4.47 µM [inhibitor, single point] | 
CN(C)c1nc(Nc2ccc(Cl)cc2)nc(OCC#N)n1 | inconclusive: 10 µM [inhibitor, single point] | 
Cc1ccccc1OCCSc1nnc(-c2ccc([N+](=O)[O-])cc2)o1 |  | inactive: 1.12%
COCCN1C(=O)/C(=C/c2ccc(OCc3ccc(C(=O)O)cc3)c(OC)c2)SC1=Nc1ccccc1 | inconclusive: 35.5 µM [inhibitor, single point] | 
Cc1nn(-c2ccccc2)c(C)c1/C=N/Nc1nc2ccccc2[nH]1 | inconclusive: 22.4 µM [inhibitor, single point] | 
COc1ccc(-c2cc(OC)c3ccccc3n2)cc1 | inconclusive: 22.4 µM [inhibitor, single point] | 
Cc1sc(NC(=S)NC(=O)c2ccc(C(C)(C)C)cc2)c(C#N)c1C |  | inactive: 1.3%
Cc1ccc(S(=O)(=O)NCC(=O)OCC(=O)c2ccc(Br)s2)cc1 | inconclusive: 20 µM [inhibitor, partial curve] | 
CC1(C)Cc2c(C#N)c(NCCc3ccccc3)nc(-c3ccco3)c2CO1 | inconclusive: 39.8 µM [inhibitor, single point] | 
CCOC(=O)c1c(C)[nH]c(C(=O)COC(=O)CNC(=O)c2ccc(Cl)cc2)c1C | inconclusive: 28.2 µM [inhibitor, single point] | 
O=C(C1=NN(c2ccccc2)C2C(=O)N(c3cccc(Cl)c3)C(=O)C12)c1ccccc1 (stereo not drawn) |  | inactive: -7.13%
Clc1ccc2c(NC3CCC(N4CCCCC4)CC3)ccnc2c1 (stereo not drawn) |  | inactive: -0.934%
CCn1c(=N)c(S(=O)(=O)c2ccc(F)cc2)cc2c(=O)n3ccccc3nc21 | active: 22.4 µM | 
Cc1cc(C)cc(NC(=S)NCCSc2ccc(Cl)cc2)c1 | inconclusive: 2.24 µM [inhibitor, full curve] | 
COc1ccc(-c2noc(-c3nnn(-c4ccc(C(C)C)cc4)c3C)n2)cc1OC |  | inactive: 2.18%
O=C(Nc1nc(-c2ccccc2)cs1)c1ccccc1NS(=O)(=O)c1ccc(F)cc1 | inconclusive: 31.6 µM [inhibitor, single point] | 
COc1ccc(CNC(=O)c2cnc3sc(N4CCCC4)nn3c2=O)cc1OC |  | inactive: -3.61%
O=C(COC(=O)c1cc(-c2ccc(Cl)s2)nc2ccccc12)NCc1ccco1 | active: 20 µM | 

SMILES | Potency | max response, negative = inhibition
Cc1ccc(NC(=O)C(CC(C)C)NS(=O)(=O)c2ccc3c(c2)oc(=O)n3C)c(C)c1 (stereo not drawn) |  | inactive: 0.195%
O=C1c2ccccc2C(=O)N1CCCc1nc2ccccc2c(=O)n1CCCn1ccnc1 | inconclusive: 39.8 µM [inhibitor, single point] | 
Cc1cnc(CNc2ccnc(-c3ccc(N(C)C)cc3)n2)cn1 | inconclusive: 20 µM [inhibitor, partial curve] | 
CC(C)c1ccc(CN(Cc2ccco2)c2cnc(S(C)(=O)=O)nc2C(=O)Nc2ccc(F)cc2)cc1 |  | inactive: -2.52%
Cc1cccc(N2CSC3=C(C#N)C(c4ccc(C)o4)CC(=O)N3C2)c1 (stereo not drawn) | inconclusive: 15.8 µM [inhibitor, partial curve] | 
O=C(Nc1ccc(Cl)cc1)Nc1ccc2c(c1)N1CCN=C1S2 | inconclusive: 22.4 µM [inhibitor, partial curve] | 
Cc1ccc(C(=O)N/C(=C/c2ccco2)C(=O)OCN2C(=O)c3ccccc3C2=O)cc1 | active: 0.355 µM | 
O=C(O)CNC(=O)c1ccc([As](=O)(O)O)cc1 |  | inactive: 6.97%
COc1cc(NC(=O)COC(=O)CNC(=O)c2cc(C)cc(C)c2)c(C)cc1[N+](=O)[O-] | inconclusive: 22.4 µM [inhibitor, single point] | 
Cc1ccc2nc3c(cc(C(=O)NCC4CCCO4)c(=N)n3C(C)C)c(=O)n2c1 (stereo not drawn) | inconclusive: 31.6 µM [inhibitor, single point] | 
O=C1c2ccccc2C(=O)N1CCC(c1ccc(F)cc1)c1ccco1 (stereo not drawn) | inconclusive: 28.2 µM [inhibitor, single point] | 
COC(=O)[C@H](NC(=O)c1cc(-c2ccccc2)nc2ccccc12)c1ccccc1 | inconclusive: 22.4 µM [inhibitor, single point] | 
Cc1ccc(CNc2nc(-c3ccco3)nn2C(=O)c2ccccc2[N+](=O)[O-])cc1 |  | inactive: -6.55%
CC1CCN(S(=O)(=O)c2ccc3c(c2)N(CC(=O)NCCCOC(C)C)C(=O)CO3)CC1 |  | inactive: -0.44%
CCn1c(=N)c(C(=O)OC)cc2c(=O)n3ccccc3nc21 | active: 0.199 µM | 
CCC(C(=O)NC1CCCCC1)n1c(SCc2ccccc2F)nc2ccncc21 (stereo not drawn) | active: 15.8 µM and active: 12.6 µM | 
C=CC(C)(C)c1[nH]c2ccccc2c1C1=C(O)C(=O)C(c2c[nH]c3c(CC=C(C)C)cccc23)=C(O)C1=O | active: 31.6 µM | 
Cc1ccc(-n2cccc2/C=C2/C(=N)N3C(=NC2=O)SN=C3S(C)(=O)=O)cc1Cl | inconclusive: 22.4 µM [inhibitor, single point] | 
COc1cc(/C=C2/SC(=S)NC2=O)ccc1OS(=O)(=O)c1ccc(C)cc1 | inconclusive: 31.6 µM [inhibitor, single point] | 
CC1CCC(C(=O)NC(C(=O)OCC(=O)c2ccc(Br)cc2)C(C)C)CC1 (stereo not drawn) | active: 14.1 µM | 
N[C@@H](Cc1cc(I)c(Oc2ccc(O)c(I)c2)c(I)c1)C(=O)O | inconclusive: 15.8 µM [inhibitor, partial curve] | 
CC(C)Cn1c(-c2ccco2)csc1=Nc1cccnc1 | active: 15.8 µM | 
